Experimental findings from PubChem BioAssay AID206 (DTP/NCI, 2004) are described below.

Records with an inconclusive call do not appear. A number of entries come with more than one value. This list holds those alone. There may be further records. The values listed for one entry differ, and nothing given here explains why; some may be repeats, others may stem from another dose, organism or construct than stated.

This assay deals with nude mice, HT29 intrarenal xenograft, tumor weight T/C. Briefly: NCI In Vivo Anticancer Drug Screen. Data for tumor model HT29;CX-1 Human Adenocarcinoma (MER+) (intrarenal inoculation) in NU/NU Swiss (nude) mice. Conditions: endpoint: mean tumor weight change, higher = larger tumour. On the procedure:
The antitumor activity of compounds was measured in mice bearing transplantable tumors. Survival or tumor size were measured and the results are expressed as the measurement made in the treated group (T) divided by the measurement made in the vehicle treated control group (C). The tumor model used in this assay is HT29;CX-1 Human Adenocarcinoma (MER+) (intrarenal inoculation) in NU/NU Swiss (nude) mice

Setting [1] is: dose: 400.0 mg/kg/injection, schedule: Q01DX010 (sc), vehicle: Klucel (hydroxypropylcellulose) (HPC).

Take `COC1C(O)CC(OC2CC(OC3CC(O[C@@H]4C(=O)c5c(cc6cc(OC7CC(OC8CC(O)C(O)C(C)O8)C(O)C(C)O7)c(C)c(O)c6c5O)C[C@H]4[C@H](OC)C(=O)[C@@H](O)[C@@H](C)O)OC(C)C3O)OC(C)C2O)OC1C` (some centres not stated): the T/C (dose: 3.0 mg/kg/injection, schedule: Q01DX010 (sc), vehicle: saline) is on record as -39 % of control, 9 % of control, 48 % of control; the T/C (dose: 6.0 mg/kg/injection, schedule: Q01DX010 (sc), vehicle: saline) was -74 % of control and -42 % of control.

Consider `CCCCCCCCCCCCCCCCS(=O)CC(O)COC(=O)c1ccc(C(=O)OCC(O)CS(=O)CCCCCCCCCCCCCCCC)cc1` (configuration not stated), for which the T/C is 72 % of control and 244 % of control (dose: 100.0 mg/kg/injection, schedule: Q01DX010 (sc), vehicle: saline + Tween-80 + alcohol); 52 % of control and 178 % of control (dose: 200.0 mg/kg/injection, schedule: Q01DX010 (sc), vehicle: saline + Tween-80 + alcohol).

For the compound `CC(=O)c1c(O)c(C)c(O)c2c1OC1=CC(=O)C(C(C)=O)C(=O)C12C` (configuration not stated), the T/C is listed as 52 % of control, 58 % of control, 114 % of control (dose: 100.0 mg/kg/injection, schedule: Q01DX010 (sc), vehicle: sodium bicarbonate); 17 % of control, 60 % of control, 75 % of control (dose: 200.0 mg/kg/injection, schedule: Q01DX010 (sc), vehicle: sodium bicarbonate); -6 % of control, 44 % of control, 97 % of control (dose: 400.0 mg/kg/injection, schedule: Q01DX010 (sc), vehicle: sodium bicarbonate).

For the compound `COc1cccc2c1C(=O)c1c(O)c3c(c(O)c1C2=O)C[C@@](O)(/C(C)=N/NC(=O)c1ccc(Cl)cc1)C[C@@H]3OC1CC(N)C(O)C(C)O1` (some centres not stated), for the setting “dose: 40.0 mg/kg/injection, schedule: Q04DX004 (sc), vehicle: water”, the T/C was 28 % of control and 85 % of control.

For the compound `S=C=NCCc1ccccc1`, the T/C is, setting by setting: (dose: 50.0 mg/kg/injection, schedule: Q01DX010 (sc), vehicle: saline with Tween-80) 31 % of control, 39 % of control, 75 % of control; (dose: 200.0 mg/kg/injection, schedule: Q01DX010 (sc), vehicle: saline with Tween-80) 6 % of control and 51 % of control.

With `C=C(NC(=O)C(=C)NC(=O)c1csc(C2=NC3c4csc(n4)C4NC(=O)c5csc(n5)C(C(C)(O)C(C)O)NC(=O)C5CSC(=N5)/C(=C/C)NC(=O)C(C(C)O)NC(=O)c5csc(n5)C3(CC2)NC(=O)C(C)NC(=O)C(=C)NC(=O)C(C)NC(=O)C(C(C)CC)NC2C=Cc3c(C(C)O)cc(nc3C2O)C(=O)OC4C)n1)C(N)=O` (configuration not stated), the T/C reads like this: under setting [1], 68 % of control and 152 % of control; (dose: 1600.0 mg/kg/injection, schedule: Q01DX010 (sc), vehicle: Klucel (hydroxypropylcellulose) (HPC)) 13 % of control and 52 % of control.

Turning to `Cn1c(=O)[nH]c2nncnc2c1=O`, the T/C (dose: 30.0 mg/kg/injection, schedule: Q04DX004 (sc), vehicle: water) is 94 % of control and 120 % of control.

Turning to `CC(C)CCCCCCCCCCCCC(=O)NCC(=O)NC1C(O)C(O)C(Nc2ncnc3nc[nH]c23)OC1C(O)CO` (configuration not stated), the T/C is 47 % of control and 111 % of control (dose: 0.4 mg/kg/injection, schedule: Q01DX010 (sc), vehicle: saline); -21 % of control and 24 % of control (dose: 1.6 mg/kg/injection, schedule: Q01DX010 (sc), vehicle: saline).

Consider `CC1(C)COCN1COC1CCCCC1`, for which the T/C reads like this: (dose: 200.0 mg/kg/injection, schedule: Q04DX004 (sc), vehicle: saline) 17 % of control and 74 % of control; (dose: 400.0 mg/kg/injection, schedule: Q04DX004 (sc), vehicle: saline) 55 % of control and 111 % of control; (dose: 800.0 mg/kg/injection, schedule: Q04DX004 (sc), vehicle: saline) 33 % of control and 94 % of control.

For the compound `COC1C(O)C(C)OC(OC2C(Oc3cccc4c(O)c5c(=O)oc6ccc(C)c7c(=O)oc(c34)c5c67)OC(C)C(O)C2O)C1O` (configuration not stated), the T/C is 24 % of control, 59 % of control, 75 % of control (dose: 100.0 mg/kg/injection, schedule: Q01DX010 (sc), vehicle: Klucel (hydroxypropylcellulose) (HPC)); 30 % of control, 42 % of control, 61 % of control (dose: 200.0 mg/kg/injection, schedule: Q01DX010 (sc), vehicle: Klucel (hydroxypropylcellulose) (HPC)); 19 % of control, 47 % of control, 50 % of control under setting [1].

`CC(C)NC(=O)OCc1c(COC(=O)NC(C)C)c(-c2ccc(Cl)c(Cl)c2)n2c1CCC2`: the T/C (dose: 100.0 mg/kg/injection, schedule: Q01DX010 (sc), vehicle: distilled water + Tween-80) was 46 % of control, 64 % of control, 106 % of control.
